Reference: patent USRE38425E1, “Semicarbazones having CNS activity and pharmaceutical preparations containing same” (University of Saskatchewan Technologies, Inc., priority 1995, dated 2004)
Like-named read-outs stand apart in the source and are kept apart here.

Key:
mice [1] = test: MES screen after intraperitoneal injection in mice; format: in vivo; details: doses of 30, 100 and 300 mg/kg
mice [2] = details: intraperitoneal injection in mice, doses of 30, 100 and 300 mg/kg
mice [3] = details: intraperitoneal injection in mice, doses of 30, 100 and 300 mg/kg; remark: listed apart in the source

Structure (SMILES) | MES screen: minimum dose whereby bioactivity was demonstrated in half or more of the mice (mice [1]; 0.5 h) [mg/kg] | MES screen: minimum dose whereby bioactivity was demonstrated in half or more of the mice (mice [1]; 4 h) [mg/kg] | MES screen 0.5 h: minimum dose whereby bioactivity was demonstrated in half or more of the mice (mice [1]; 0.5 h) [mg/kg] | MES screen 4 h: minimum dose whereby bioactivity was demonstrated in half or more of the mice (mice [1]; 4 h) [mg/kg] | further results
CC(=NNC(N)=O)c1ccccc1Oc1ccccc1 [14a] | 300 | – | – | – | acPTZ screen: minimum dose whereby bioactivity was demonstrated in half or more of the mice (mice [2]; 0.5 h): 300 mg/kg; toxicity screen: minimum dose whereby bioactivity was demonstrated in half or more of the mice (mice [3]; 0.5 h): 300 mg/kg
CC(=NNC(N)=O)c1ccccc1Oc1ccc(Cl)cc1 [14c] | 300 | 300 | – | – | acPTZ screen: minimum dose whereby bioactivity was demonstrated in half or more of the mice (mice [2]; 0.5 h): 300 mg/kg; acPTZ screen: minimum dose whereby bioactivity was demonstrated in half or more of the mice (mice [2]; 4 h): 300 mg/kg; toxicity screen: minimum dose whereby bioactivity was demonstrated in half or more of the mice (mice [3]; 0.5 h): 300 mg/kg; toxicity screen: minimum dose whereby bioactivity was demonstrated in half or more of the mice (mice [3]; 4 h): 300 mg/kg
CC(=NNC(N)=O)c1ccccc1Oc1ccc(Br)cc1 [14d] | – | – | – | – | toxicity screen: minimum dose whereby bioactivity was demonstrated in half or more of the mice (mice [3]; 0.5 h): 300 mg/kg
CCC(=NNC(N)=O)c1ccccc1Oc1ccc(F)cc1 [14e] | – | – | – | – | toxicity screen: minimum dose whereby bioactivity was demonstrated in half or more of the mice (mice [3]; 4 h): 300 mg/kg
CCC(=NNC(N)=O)c1ccccc1Oc1ccc(Cl)cc1 [14f] | 300 | 300 | – | – | –
CCC(=NNC(N)=O)c1ccccc1Oc1ccc(Br)cc1 [14g] | – | – | – | – | toxicity screen: minimum dose whereby bioactivity was demonstrated in half or more of the mice (mice [3]; 4 h): 300 mg/kg
NC(=O)NN=Cc1ccc(OC(=O)c2ccccc2)cc1 [15b] | – | 300 | – | – | –
NC(=O)NN=Cc1ccc(OC(=O)c2ccc(Cl)cc2)cc1 [15c] | – | 300 | – | – | –
NC(=O)NN=Cc1ccc(OCc2ccccc2)cc1 [15d] | 300 | 300 | – | – | acPTZ screen: minimum dose whereby bioactivity was demonstrated in half or more of the mice (mice [2]; 4 h): 100 mg/kg
NC(=O)NN=Cc1ccc(S(=O)(=O)c2ccccc2)cc1 [15e] | – | 300 | – | – | –
NC(=O)N1c2ccccc2C=Cc2ccccc21 [Carbamazepine, reference compound] | 30 | 100 | 30 | 100 | acPTZ screen 0.5 h: minimum dose whereby bioactivity was demonstrated in half or more of the mice (mice [2]; 0.5 h): 100 mg/kg; acPTZ screen: minimum dose whereby bioactivity was demonstrated in half or more of the mice (mice [2]; 0.5 h): 100 mg/kg; acPTZ screen 4 h: minimum dose whereby bioactivity was demonstrated in half or more of the mice (mice [2]; 4 h): 300 mg/kg; acPTZ screen: minimum dose whereby bioactivity was demonstrated in half or more of the mice (mice [2]; 4 h): 300 mg/kg
NC(=O)NN=Cc1cccc(Oc2ccccc2)c1 [Compound 3] | – | – | – | 300 | –
NC(=O)NN=Cc1ccc(Oc2ccccc2)cc1 [Compound 4a] | – | – | 100 | 300 | –
NC(=O)NN=Cc1ccc(Oc2ccc(F)cc2)cc1 [Compound 4b, 4-(4′-fluorophenoxy)benzaldehyde semicarbazone] | 30 | 100 | 30 | 100 | –
NC(=O)NN=Cc1ccc(Oc2ccc(Cl)cc2)cc1 [Compound 4c] | – | – | 30 | 30 | acPTZ screen 0.5 h: minimum dose whereby bioactivity was demonstrated in half or more of the mice (mice [2]; 0.5 h): 30 mg/kg; toxicity screen 0.5 h: minimum dose whereby bioactivity was demonstrated in half or more of the mice (mice [3]; 0.5 h): 300 mg/kg; toxicity screen 4 h: minimum dose whereby bioactivity was demonstrated in half or more of the mice (mice [3]; 4 h): 30 mg/kg
NC(=O)NN=Cc1ccc(Oc2ccc(Br)cc2)cc1 [Compound 4d] | – | – | 30 | 30 | toxicity screen 0.5 h: minimum dose whereby bioactivity was demonstrated in half or more of the mice (mice [3]; 0.5 h): 300 mg/kg; toxicity screen 4 h: minimum dose whereby bioactivity was demonstrated in half or more of the mice (mice [3]; 4 h): 30 mg/kg

Structure (SMILES) | MES screen: minimum dose whereby bioactivity was demonstrated in half or more of the mice (mice [1]; 0.5 h) [mg/kg] | MES screen: minimum dose whereby bioactivity was demonstrated in half or more of the mice (mice [1]; 4 h) [mg/kg] | MES screen 0.5 h: minimum dose whereby bioactivity was demonstrated in half or more of the mice (mice [1]; 0.5 h) [mg/kg] | MES screen 4 h: minimum dose whereby bioactivity was demonstrated in half or more of the mice (mice [1]; 4 h) [mg/kg] | further results
NC(=O)NN=Cc1ccc(Oc2ccc(I)cc2)cc1 [Compound 4e] | – | – | 30 | 30 | acPTZ screen 0.5 h: minimum dose whereby bioactivity was demonstrated in half or more of the mice (mice [2]; 0.5 h): 100 mg/kg; acPTZ screen 4 h: minimum dose whereby bioactivity was demonstrated in half or more of the mice (mice [2]; 4 h): 300 mg/kg; toxicity screen 0.5 h: minimum dose whereby bioactivity was demonstrated in half or more of the mice (mice [3]; 0.5 h): 300 mg/kg; toxicity screen 4 h: minimum dose whereby bioactivity was demonstrated in half or more of the mice (mice [3]; 4 h): 100 mg/kg
Cc1ccc(Oc2ccc(C=NNC(N)=O)cc2)cc1 [Compound 4f] | – | – | 30 | 100 | –
NC(=O)NN=Cc1ccc(Oc2ccc(-c3ccccc3)cc2)cc1 [Compound 4g] | – | – | – | 300 | acPTZ screen 4 h: minimum dose whereby bioactivity was demonstrated in half or more of the mice (mice [2]; 4 h): 300 mg/kg; toxicity screen 4 h: minimum dose whereby bioactivity was demonstrated in half or more of the mice (mice [3]; 4 h): 300 mg/kg
COc1ccc(Oc2ccc(C=NNC(N)=O)cc2)cc1 [Compound 4h] | – | – | 100 | 100 | toxicity screen 4 h: minimum dose whereby bioactivity was demonstrated in half or more of the mice (mice [3]; 4 h): 300 mg/kg
NC(=O)NN=Cc1ccc(Oc2ccc(Oc3ccccc3)cc2)cc1 [Compound 4i] | – | – | – | 300 | –
N#Cc1ccc(Oc2ccc(C=NNC(N)=O)cc2)cc1 [Compound 4j] | – | – | 30 | 30 | acPTZ screen 0.5 h: minimum dose whereby bioactivity was demonstrated in half or more of the mice (mice [2]; 0.5 h): 30 mg/kg; acPTZ screen 4 h: minimum dose whereby bioactivity was demonstrated in half or more of the mice (mice [2]; 4 h): 30 mg/kg; toxicity screen 0.5 h: minimum dose whereby bioactivity was demonstrated in half or more of the mice (mice [3]; 0.5 h): 300 mg/kg; toxicity screen 4 h: minimum dose whereby bioactivity was demonstrated in half or more of the mice (mice [3]; 4 h): 100 mg/kg
NC(=O)NN=Cc1ccc(Oc2ccc(F)cc2Br)cc1 [Compound 5m] | – | – | 100 | 100 | acPTZ screen 0.5 h: minimum dose whereby bioactivity was demonstrated in half or more of the mice (mice [2]; 0.5 h): 300 mg/kg; toxicity screen 0.5 h: minimum dose whereby bioactivity was demonstrated in half or more of the mice (mice [3]; 0.5 h): 300 mg/kg; toxicity screen 4 h: minimum dose whereby bioactivity was demonstrated in half or more of the mice (mice [3]; 4 h): 300 mg/kg
Cc1cccc(Oc2ccc(C=NNC(N)=O)cc2)c1 [Compound 5o] | – | – | 30 | 100 | toxicity screen 0.5 h: minimum dose whereby bioactivity was demonstrated in half or more of the mice (mice [3]; 0.5 h): 100 mg/kg; toxicity screen 4 h: minimum dose whereby bioactivity was demonstrated in half or more of the mice (mice [3]; 4 h): 300 mg/kg
CC(C)(C)CC(C)(C)c1ccc(Oc2ccc(C=NNC(N)=O)cc2)cc1 [Compound 5t] | – | – | – | – | toxicity screen 4 h: minimum dose whereby bioactivity was demonstrated in half or more of the mice (mice [3]; 4 h): 300 mg/kg
CCCCCCCOc1ccc(Oc2ccc(C=NNC(N)=O)cc2)cc1 [Compound 5v] | – | – | – | – | toxicity screen 0.5 h: minimum dose whereby bioactivity was demonstrated in half or more of the mice (mice [3]; 0.5 h): 300 mg/kg
CC(=NNC(N)=O)c1ccc(Oc2ccccc2)cc1 [Compound 13a] | 30 | 100 | – | – | toxicity screen: minimum dose whereby bioactivity was demonstrated in half or more of the mice (mice [3]; 0.5 h): 100 mg/kg; toxicity screen: minimum dose whereby bioactivity was demonstrated in half or more of the mice (mice [3]; 4 h): 100 mg/kg
CCC(=NNC(N)=O)c1ccc(Oc2ccccc2)cc1 [Compound 13e] | 30 | 100 | – | – | toxicity screen: minimum dose whereby bioactivity was demonstrated in half or more of the mice (mice [3]; 0.5 h): 100 mg/kg; toxicity screen: minimum dose whereby bioactivity was demonstrated in half or more of the mice (mice [3]; 4 h): 100 mg/kg
NC(=O)NN=Cc1ccc(Sc2ccccc2)cc1 [Compound 15a] | 30 | 30 | – | – | toxicity screen: minimum dose whereby bioactivity was demonstrated in half or more of the mice (mice [3]; 4 h): 300 mg/kg
O=C1NC(=O)C(c2ccccc2)(c2ccccc2)N1 [Phenytoin, reference compound] | 30 | 30 | 30 | 30 | –
CCCC(CCC)C(=O)O [Valproic acid, reference compound] | – | – | – | – | acPTZ screen 0.5 h: minimum dose whereby bioactivity was demonstrated in half or more of the mice (mice [2]; 0.5 h): 300 mg/kg; acPTZ screen: minimum dose whereby bioactivity was demonstrated in half or more of the mice (mice [2]; 0.5 h): 300 mg/kg
